Laboratory results taken from PubChem BioAssay AID588855 (National Center for Advancing Translational Sciences (NCATS), 2011).
About 5,000 (1.2%) of roughly 410,000 compounds were called active. The shares of active, inactive and inconclusive entries below differ from those in the screen. The call rests on the fitted dose curve; in most records, active means well fitted inhibition curve with a large enough effect; inconclusive means small, poorly fitted or top-dose-only effect; inactive means no such curve, though single readings can be large or run the other way. Potencies beside an inconclusive call are fits to weak or partial responses and may not hold up.
On the % scale 0 is the no-effect control and ±100 the full control effect; potency means the concentration at half of the fitted maximal effect; tags describe the fitted curve by direction and shape.

Assay: qHTS for Inhibitors of TGF-b; further: nearly all actives have a fitted effect of over 65% in size
Details: HepG2 CAGA-GFP TGF-b/SMAD3 reporter, GFP fluorescence, 18 h, TGF-beta stimulated, 500 pg/mL final; series mostly up to 46.1 µM; activity, negative = inhibition: at the top concentration
Outline: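 Read-out: total well GFP (ex488/em500-530) summed from mean per-cell fluorescence. Cells: HEPG2 CAGA-GFP, 1% FBS DMEM, 18 h at 37 degrees C with 500 pg/mL final TGF-beta. Unstimulated wells served as the full-inhibition control; stimulated DMSO wells = 0%.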
For OC(c1ccc(Cl)c(Cl)c1)c1ncc(-c2ccc(Cl)cc2)[nH]1 (stereo unspecified), the Potency was inconclusive: 17.8 µM [inhibitor, single point]. In the case of COc1ccc(/C(N)=N/OC(=O)CCCN2C(=O)c3ccccc3C2=O)cc1OC, the “activity, negative = inhibition” value is reported as inactive: 49.6%. For O=C(/C=C/c1ccc(F)cc1)Nc1cccc(S(=O)(=O)N2CCOCC2)c1, the Potency was inconclusive: 14.1 µM [inhibitor, single point]. For CCOC(=O)C1=C[C@@H](C(C)(C)C)N(S(=O)(=O)c2ccc(C)cc2)[C@H]1c1ccc(Cl)c(Cl)c1, the Potency was inconclusive: 11.2 µM [inhibitor, partial curve, poor fit]. In the case of COc1ccccc1[C@H]1C(c2ccc(F)cc2)=NN(c2ccccc2)[C@@H]1CO, the Potency is reported as inconclusive: 28.2 µM [inhibitor, single point]. With N#C/C(=C\c1ccc[nH]1)Sc1nc2ccccc2s1 the Potency was inconclusive: 35.5 µM [inhibitor, single point]. For CN(CC(=O)Nc1ccccc1Br)C(=O)c1ccc(COc2ccccc2)cc1, the “activity, negative = inhibition” value was inactive: -23.4%. In the case of CN(C)S(=O)(=O)c1ccc(C(=O)Nc2nc(-c3cccs3)cs2)cc1, the “activity, negative = inhibition” value is reported as inactive: -18.4%. In the case of CCCOc1c(Cl)cc(C(=O)N(Cc2cccc(OC)c2)C2CCS(=O)(=O)C2)cc1Cl (stereo unspecified), the Potency is reported as inconclusive: 15.8 µM [inhibitor, single point]. In the case of CCC(=O)OCC(=O)Nc1cc(S(=O)(=O)N(C)C)ccc1Cl, the Potency is reported as inconclusive: 35.5 µM [inhibitor, single point]. In the case of CCC1C(=O)C[C@H]2CCN3C(=O)CCCC1C23 (stereo partly specified), the “activity, negative = inhibition” value is reported as inactive: 11.8%. For CNC(=O)Nc1ccc2snnc2c1, the Potency was inconclusive: 0.224 µM [inhibitor, full curve, poor fit]. For CC(=O)Nc1ccc(N(C(=O)CNC(=O)c2ccco2)C(C(=O)NC2CCCC2)c2ccco2)cc1 (stereo unspecified), the “activity, negative = inhibition” value was inactive: -12.7%. With O=C(NNC(=O)C1CC=CCC1C(=O)O)c1cccs1 (stereo unspecified) the Potency was inconclusive: 0.631 µM [inhibitor, full curve, poor fit]. In the case of CC1=NN(C(=O)c2ccccc2F)C(O)(c2ccc(Cl)cc2)C1 (stereo unspecified), the Potency is reported as inconclusive: 14.1 µM [inhibitor, partial curve, poor fit]. With COc1ccc(C2CC=C(C(C)=O)CN2S(=O)(=O)c2ccc(C)cc2)cc1 (stereo unspecified) the “activity, negative = inhibition” value was inactive: -20.7%. For O=[N+]([O-])c1ccccc1-c1ccc(C(=S)N2CCCCC2)o1, the Potency was inconclusive: 10 µM [inhibitor, partial curve]. With Cc1ccc(CNCc2c(C(=O)O)n(Cc3ccccc3C)c3cc(C)ccc23)cc1 the “activity, negative = inhibition” value was inactive: 3.1%. With O=C1N/C(=C/c2ccc(N3CCOCC3)o2)C(=O)N1c1cccc(Cl)c1 the Potency was active: 10 µM. In the case of Cc1oc(-c2cccc(Cl)c2)nc1CN1CCC(C(=O)NCCCN2CCN(c3cccc(Cl)c3)CC2)CC1, the “activity, negative = inhibition” value is reported as inactive: -7.6%. In the case of O=C(NCc1ccc2c(c1)OCO2)c1nc(S(=O)(=O)Cc2ccccc2)ncc1Cl, the Potency is reported as active: 10 µM. In the case of CC(C)C[C@H]1CNC(=S)N1CC1CCN(CCC23CC4CC(CC(C4)C2)C3)CC1, the Potency is reported as inconclusive: 35.5 µM [inhibitor, single point]. For CCNc1nc(NC(C)C)nc(N(C#N)CCOc2ccccc2)n1, the Potency was inconclusive: 35.5 µM [inhibitor, single point]. With CCN(CC)C(=O)C1=C(C)N(Cc2ccc(C(C)(C)C)cc2)C(=O)C(CC(=O)NCC2CCCCC2)C1 (stereo unspecified) the Potency was inconclusive: 25.1 µM [inhibitor, single point]. In the case of CC1Sc2ccc(S(=O)(=O)N3CCN(c4cccc(Cl)c4)CC3)cc2NC1=O (stereo unspecified), the Potency is reported as inconclusive: 22.4 µM [inhibitor, partial curve]. For COc1ccc(OC)c(NC(=O)CS(=O)(=O)Cc2ccccc2)c1, the “activity, negative = inhibition” value was inactive: 19.6%. With CCN=C1S/C(=C\c2cn(CC)c3ccccc23)C(=O)N1CC the Potency was inconclusive: 20 µM [inhibitor, partial curve, poor fit]. In the case of CC(C)Oc1cccc(C(=O)C2CCCN(Cc3cccn3-c3cccnc3)C2)c1 (stereo unspecified), the Potency is reported as inconclusive: 10 µM [inhibitor, partial curve, poor fit]. In the case of Cc1ccc(S(=O)(=O)Nc2cccc(-c3ccc(N4CCCCC4)nn3)c2)s1, the Potency is reported as inconclusive: 35.5 µM [inhibitor, single point]. For O=C(NCCc1ccc(Cl)cc1)c1ccc(CSCc2ccccc2Cl)o1, the Potency was inconclusive: 35.5 µM [inhibitor, single point]. For CC1CN(CC(O)c2ccc(Br)cc2)CCO1 (stereo unspecified), the “activity, negative = inhibition” value was inactive: -6.03%. In the case of NC(=O)c1c(NC(=O)c2ccc([N+](=O)[O-])o2)sc2c1CCCC2, the Potency is reported as inconclusive: 5.62 µM [inhibitor, full curve, poor fit]. For CN(C1=C(N2CCCCC2)C(=O)c2ccccc2C1=O)c1ccccc1, the Potency was active: 17.8 µM. For CC1CCN(CCCNC(=O)c2cc3c(s2)-c2ccccc2OC3)CC1, the Potency was inconclusive: 22.4 µM [inhibitor, single point]. In the case of Cc1[nH][nH]c(=O)c1C=NCc1cccc(C(F)(F)F)c1, the Potency is reported as inconclusive: 35.5 µM [inhibitor, single point]. For Cc1ccc(NC(=O)c2cccc(S(=O)(=O)N3CCCCC3)c2)cc1, the Potency was inconclusive: 15.8 µM [inhibitor, single point]. In the case of Nc1ccccc1Nc1cc(-c2ccccc2)nn1-c1ccccc1, the Potency is reported as inconclusive: 25.1 µM [inhibitor, single point]. In the case of CCOc1cc(/C=N/NC(=O)c2cc(-c3cccc(OC)c3)nc3ccccc23)ccc1O, the Potency is reported as inconclusive: 10 µM [inhibitor, partial curve, poor fit]. For CCC(NC(=O)c1cc(COc2ccc(C)nc2)on1)c1ccc(C)cc1 (stereo unspecified), the “activity, negative = inhibition” value was inactive: -18.7%. For Cc1cccc(Nc2nnc(SC3CCOC3=O)s2)c1C (stereo unspecified), the Potency was inconclusive: 15.8 µM [inhibitor, single point]. For O=C1CCCN1CCCNc1nc(NCc2ccccc2)nc2ccsc12, the Potency was active: 3.16 µM. In the case of COc1cccc(-c2cnc3c(NC=O)cc(-c4ccoc4)cn23)c1, the Potency is reported as inconclusive: 8.91 µM [inhibitor, partial curve, poor fit]. In the case of Cc1cc(S(=O)(=O)N2CCN(CC(=O)N(C)Cc3ccccc3)CC2)ccc1Br, the “activity, negative = inhibition” value is reported as inactive: 0%. For CCCCNC(=O)CO/N=C(\C)c1cc2ccccc2o1, the Potency was inconclusive: 6.31 µM [inhibitor, single point]. With COc1ccc(N2CCN(C(=O)c3cc4c(=O)n(Cc5ccccc5)ccc4nc3C)CC2)cc1 the Potency was “inactive”. In the case of COc1ccc(-n2nnnc2C(CCSC)N2CCN(C/C=C/c3ccccc3)CC2)cc1 (stereo unspecified), the “activity, negative = inhibition” value is reported as inactive: -33.6%. With COc1cc(OC)cc(C(=O)Nc2ccccc2C(=O)NC2CC2)c1 the Potency was inconclusive: 0.447 µM [inhibitor, full curve, poor fit]. In the case of N/C(=N\S(=O)(=O)c1cc(C(F)(F)F)cc(C(F)(F)F)c1)c1cccs1, the Potency is reported as active: 12.6 µM. In the case of CC[C@@H](C)[C@H](N)C(=O)NC[C@H]1O[C@@H](n2cnc3c(N)ncnc32)[C@H](O)[C@@H]1O, the “activity, negative = inhibition” value is reported as inactive: -4.17%. With COc1ccc(-c2csc(NC(C)c3nc4cc(Cl)c(N5CCCCC5)cc4n3CCOCCO)n2)cc1 (stereo unspecified) the Potency was inconclusive: 35.5 µM [inhibitor, single point]. For CCC(C(=O)N1CCN(c2cc(Cl)ccc2C)CC1)n1nc(C)n2c(cc3occc32)c1=O (stereo unspecified), the Potency was inconclusive: 25.1 µM [inhibitor, single point]. For C[C@@H](CSc1ccc(Br)cc1)CN1CC[C@H](NC(=O)OCc2ccccc2)CCC1=O, the Potency was active: 11.2 µM. In the case of O=C(NC(=S)N1CCN(c2nc(-c3ccccc3)cs2)CC1)c1cncc(Br)c1, the Potency is reported as inconclusive: 20 µM [inhibitor, single point]. For O=[N+]([O-])c1ccccc1-c1cc(-c2cc(Cl)ccc2O)n[nH]1, the Potency was inconclusive: 28.2 µM [inhibitor, single point]. In the case of CCOc1ccccc1CNCc1ccc(F)cc1, the “activity, negative = inhibition” value is reported as inactive: 0.106%. With CCCCN(CCCC)S(=O)(=O)c1ccc(OC)c2ncccc12 the Potency was inconclusive: 22.4 µM [inhibitor, single point]. With O=C(c1ccc(Oc2ccc([N+](=O)[O-])cc2)cc1)N1CCCCCC1 the Potency was inconclusive: 17.8 µM [inhibitor, single point]. For CC(C)OC(=O)c1cc2c(ccn2C)n1CC(=O)N1CCC(Cc2ccccc2)CC1, the Potency was inconclusive: 25.1 µM [inhibitor, partial curve, poor fit]. For CC(C)(C)c1nc(NC(=O)Nc2ccccc2)sc1Br, the Potency was inconclusive: 35.5 µM [inhibitor, single point]. With O=C(O)c1ccc(-c2ncc[nH]2)cc1 the Potency was inconclusive: 35.5 µM [inhibitor, single point]. In the case of CCCCN(C)C(=O)c1sc(=O)n(Cc2ccc(Cl)c(Cl)c2)c1C, the Potency is reported as inconclusive: 31.6 µM [inhibitor, single point]. With Cc1ccc2c(c1)sc(=NC(=O)c1cccs1)n2C the Potency was inconclusive: 3.16 µM [inhibitor, full curve, poor fit]. With Cc1cc2nc(-c3ccco3)c(Cc3cccc(F)c3)n2c(C)c1Br the Potency was inconclusive: 20 µM [inhibitor, partial curve, poor fit]. For Cc1ccc(C)c(-c2csc(-c3c(N)c(C(=O)c4ccc5c(c4)OCO5)n4ccccc34)n2)c1, the Potency was inconclusive: 6.31 µM [inhibitor, single point]. With CCCCCCN1C[C@@H](n2cc(COC(=O)c3ccccc3)nn2)[C@H](O)C[C@@H]1c1ccccc1 the Potency was inconclusive: 22.4 µM [inhibitor, single point]. With Cc1sc2nc(CN(Cc3cccs3)C(=O)NC3CCCCC3)[nH]c(=O)c2c1C the Potency was inconclusive: 25.1 µM [inhibitor, single point].
